# Measured values as given in the supplement of paper PMC10338343.
# ± gives the standard deviation. Over roughly 3,000 sequences, “pre-steady-state target cleavage rate” has its median near 0.0079; the highest 2% begin near 0.2. This is a selection; strong and weak results do not stand in their true shares.
# Tested on: MILI (PIWIL2) piRISC loaded with piRNA #2 (26 nt)
# Assay: pre-steady-state target cleavage rate (min^-1); MIWI and MILI are mouse PIWI proteins and EfPiwi is from a freshwater sponge; tags in brackets are library labels; higher = faster piRNA-guided slicing of the target
# Settings: guide: piRNA #2 5'p-UUAGGUAACCCAGUAGAUCCAGAGGA; auxiliary factor: 500 nM mouse GTSF1
# Summary of the method: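 Cleave-'n-Seq reactions paired 0.1 nM transcribed, DNA-blocked target RNA library with 1 nM active affinity-purified piRISC holding one synthetic guide, plus or minus 500 nM GTSF1 partner protein, in HEPES–potassium acetate buffer at 33 °C for 0–8 or 0–960 min. After sequencing of uncleaved targets and normalisation to depth and weakly complementary targets, the pre-steady-state cleavage rate was taken from a burst-and-steady-state fit. Three trials were pooled, and k3 was capped at 0.0001 min^-1.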
row,Sequence,pre-steady-state target cleavage rate
1,CUUAUCCUCUGGAUCUACUAGGGUUACCUAA,0.00963 ± 0.0053
2,CUUAAGGUCUGGAUCUACUGGUUUACCUAA,0.0062 ± 0.0035
3,CUUAAGGAGAGGAUCUACUGGGUUACCUA,0.0123 ± 0.0056
4,CUUAUCCUCAGGAUCAACUGGGUUACCUAA,0.0489 ± 0.012
5,CUUAAGGUCUGGAUGUACUGGGUUACCUAA,0.065 ± 0.027
6,CUUAAGGAGUGGAUCUACUGGGUUACCUCA,0.0359 ± 0.012
7,CUUAACCUCUGGAUCUACUGGGUUACGAUA,0.0968 ± 0.025
8,CUUAAGCAUCUGGAUCUACUGGGUUACCUAA,0.153 ± 0.036
9,CUUAUCCUCUGGAACUACAGGGUUACCUAA,0.142 ± 0.026
10,CUUAUCCUCUGGAUCUUCUGGGUUACCUUA,0.0894 ± 0.017
11,CUUAAGGAGUGGAUCUACAGGGUUACCAAA,0.0277 ± 0.01
12,CUUAACCUCUGGAUCUUCUGGGUUACCAAA,0.0779 ± 0.018
13,CUUAACGUCAGGAUCUACUGGGUUACCUAA,0.0483 ± 0.017
14,CUUAACCUCUGGAUCUACUGGGUUACGCUAA,0.138 ± 0.022
15,CUUAUCCUCUGGAUCUACUGGGUAACCUAA,0.0929 ± 0.021
16,CUUAACCUCUGGAUCUACUGGGGUUACCUAA,0.0375 ± 0.012
17,CUUAUCCUCUGGAAGUACUGGGUUACCUAA,0.133 ± 0.021
18,CUUAACCUCUGGAUCUACAGGGUAACCUAA,0.0519 ± 0.016
19,CUUAACCUGUGGAUCUACUGGGUUUCCUAA,0.0399 ± 0.018
20,CUUAGCCUCUGGAUCUACUGGGUUACCUAA,0.218 ± 0.05
21,CUUAUCCUCAGGAUCUACAGGGUUACCUAA,0.0828 ± 0.013
22,CUUAAGGACUGGAUCUACUGGGUUACGCUAA,0.0122 ± 0.0081
23,CUUAACCUCUCGUUCUACUGGGUUACCUAA,0.094 ± 0.017
24,CUUAAGCUCUGGAUCUACAGGGUUACCUAA,0.0647 ± 0.011

row,Sequence,pre-steady-state target cleavage rate
1,CUUAAGGACUCGAUCUACUGGGUUUCCUAA,0.00553 ± 0.0038
2,CUUAAGGACUGGAUGUACUGGGUUACCUAA,0.0239 ± 0.019
3,CUUAAGCUCUGGAUCAUCUGGGUUACCUAA,0.0304 ± 0.011
4,CUUAAGCUCUGGAUCUACUGGGUUACCUCA,0.0858 ± 0.025
5,CUUAAGGUCUCGAUCUACUGGGUUACGUAA,0.00877 ± 0.006
6,CUUAAGGUCUGGAUCUACUGGGUUACCUUAA,0.0607 ± 0.015
7,CUUAACCUCUGCAUCUACUGGGUUACCUAA,0.185 ± 0.036
8,CUUAAGGUCAGGAUCUACUGGGUUACCAAA,0.0145 ± 0.0086
9,CUUAAGCUCUGGAUCUAUGGGUUACCUAA,0.00978 ± 0.0041
10,CUUAUGCUCUGGAUCUACUGGGUAACCUAA,0.0539 ± 0.012
11,CUUAAGGAGAGGAUCUACUGGGUUACCUAAA,0.0113 ± 0.006
12,CUUAAGGUCUGGAUCUUCUGGGAUACCUAA,0.0121 ± 0.0065
13,CUUAAGGAGACGAUCUACUGGGUUACCUAA [g2:g19:cont:t1A],0.00616 ± 0.0033
14,CUUAAGGUCUCGAUCUACUGGGUUACCUUA,0.0125 ± 0.0049
15,CUUAUCCUCUGGAUCUACUGGGUUACUAA,0.16 ± 0.03
16,CUUAAGCUCUGGAUCUGCUGGGUUACCUAA,0.0325 ± 0.013
17,CUUAAGGAGACGAUCUACGGGGUUACCUAA,0.0104 ± 0.0052
18,CUUAACCUCUGGAUCAACUGGGUUACGUAA,0.0219 ± 0.01
19,CUUAUCCUCUGGAUCUACUGGGUUACCGAA,0.143 ± 0.039
20,CUUAUCCUCUGGAUCAUACUGGGUUACCUAA,0.00499 ± 0.0038
21,CUUAAGGUCUGGUUCUACUGGGUUACCUAA,0.0719 ± 0.013
22,CUUAACCGCUGGAUCUACUGGGUUACCUAA,0.0929 ± 0.016
23,CUUAACCUCUGGAUCUACUGGGUAUACCUAA,0.0924 ± 0.019
24,CUUAACGUCUGGAUCUACUGCGUUACCUAA,0.0153 ± 0.006

row,Sequence,pre-steady-state target cleavage rate
1,CUUAACCACUGGAUCUACUGGGUUACCUAA,0.104 ± 0.017
2,CUUAUGGACUGGAUCUACUGGGUUACCUAA,0.0559 ± 0.018
3,CUUAAGCUCCGGAUCUACUGGGUUACCUAA,0.071 ± 0.024
4,CUUAAGCUCUGGAUCUACUGGGAUACCUAA,0.0297 ± 0.0083
5,CUUAAGCUCUGGAUCUACUGGGUUACCUA,0.0941 ± 0.025
6,CUUAAGCUCUGGAUCUACUGGGUUCACCUAA,0.0506 ± 0.017
7,CUUAAGGUCUGGAUCUACUGGGUGUACCUAA,0.0466 ± 0.011
8,CUUAACCUCUGGAUCAACAGGGUUACCUAA,0.0692 ± 0.011
9,CUUAACCUCUGGAUCUACUGGGCUUACCUAA,0.042 ± 0.012
10,CUUAUGCUCUGGAUCUACUGGGUUACCUUA,0.108 ± 0.024
11,CUUAUCGUCUGGUUCUACUGGGUUACCUAA,0.0848 ± 0.012
12,CUUAAGCUCUGGAUCUACUGGGUUACGCUAA,0.121 ± 0.019
13,CUUAAGCUCUGGAUCUACUGGGUUAGCCUAA,0.0977 ± 0.019
14,CUUAAGGACUCGAUCUACUGGGUUAGCUAA,0.00479 ± 0.0041
15,CUUAACCUCUGGAUCGACUGGGUUACCUAA,0.08 ± 0.015
16,CUUAAGCUCUGGUAUCUACUGGGUUACCUAA,0.15 ± 0.038
17,CUUAACCUCUGCUUCUACUGGGUUACCUAA,0.122 ± 0.027
18,CUUAACCUCUGGAUCAACUGGGUUUCCUAA,0.101 ± 0.038
19,CUUAACGUCUGGAUCUUCUGGGUUACCUAA,0.0809 ± 0.018
20,CUUAACCUCAUGGAUCUACUGGGUUACCUAA,0.0621 ± 0.021
21,CUUAACCUCUGGAACUACUGGGUUACCAAA,0.0906 ± 0.032
22,CUUAAGCUCUGGAUCUAGUGGGUUACCAAA,0.0249 ± 0.0083
23,CUUAAGCUCUGGAACUAGUGGGUUACCUAA,0.0466 ± 0.011
24,CUUAACCUCUGGAUCUACUGGGUUCACCUAA,0.0871 ± 0.022
